Measurements from PMC4265154, “A reversible Renilla luciferase protein complementation assay for rapid identification of protein–protein interactions reveals the existence of an interaction network involved in xyloglucan biosynthesis in the plant Golgi apparatus” (Journal of Experimental Botany, 2014).
Results are given in words; binding and its absence hold for the method and conditions named. In cells and extracts the contact can be indirect. Some entries that bind do so weakly or less than the wild type. Where a sequence is shown, tags or fusion partners need not be part of it.

Assays:
[1] = molecular target: T1, MURUS3/KATAMARI1 (MUR3) fused to hRluc fragment [F1] or [F2] (Arabidopsis thaliana) (UniProt Q7XJ98); assay: split reporter; Rluc-PCA: proteins with C-terminal hRluc[F1]-HA and hRluc[F2]-FLAG co-expressed with p19 in N. benthamiana leaves for 72 h (Agrobacterium OD600 0.2 each, p19 0.05); pooled leaf discs macerated in 0.5 M NaCl, 0.1 M potassium phosphate pH 7.4, 1 mM EDTA, 0.02% BSA, protease inhibitors; 10 uM coelenterazine-h, luminescence 30 s; compared with p19 alone
T1 sequence: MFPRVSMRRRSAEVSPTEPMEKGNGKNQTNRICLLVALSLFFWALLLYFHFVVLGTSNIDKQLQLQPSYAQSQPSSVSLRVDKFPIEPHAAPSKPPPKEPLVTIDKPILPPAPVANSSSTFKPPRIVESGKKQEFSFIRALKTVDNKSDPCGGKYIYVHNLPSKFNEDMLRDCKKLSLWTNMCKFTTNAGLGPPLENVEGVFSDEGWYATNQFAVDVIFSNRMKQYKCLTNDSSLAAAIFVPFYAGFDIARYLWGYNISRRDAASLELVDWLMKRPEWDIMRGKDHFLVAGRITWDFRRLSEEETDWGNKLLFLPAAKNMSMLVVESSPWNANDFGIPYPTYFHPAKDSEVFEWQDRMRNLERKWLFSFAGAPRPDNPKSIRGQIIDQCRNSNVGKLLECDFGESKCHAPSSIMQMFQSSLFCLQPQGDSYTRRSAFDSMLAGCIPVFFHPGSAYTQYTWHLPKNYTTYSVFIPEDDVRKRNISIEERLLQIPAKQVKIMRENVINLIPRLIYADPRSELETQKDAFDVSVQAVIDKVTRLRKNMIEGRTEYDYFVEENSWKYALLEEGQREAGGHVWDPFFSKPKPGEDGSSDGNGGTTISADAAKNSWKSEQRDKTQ

[2] = molecular target: T2, XXT2 fused to hRluc fragment [F1] or [F2] (Arabidopsis thaliana) (UniProt O22775); assay: as above
T2 sequence: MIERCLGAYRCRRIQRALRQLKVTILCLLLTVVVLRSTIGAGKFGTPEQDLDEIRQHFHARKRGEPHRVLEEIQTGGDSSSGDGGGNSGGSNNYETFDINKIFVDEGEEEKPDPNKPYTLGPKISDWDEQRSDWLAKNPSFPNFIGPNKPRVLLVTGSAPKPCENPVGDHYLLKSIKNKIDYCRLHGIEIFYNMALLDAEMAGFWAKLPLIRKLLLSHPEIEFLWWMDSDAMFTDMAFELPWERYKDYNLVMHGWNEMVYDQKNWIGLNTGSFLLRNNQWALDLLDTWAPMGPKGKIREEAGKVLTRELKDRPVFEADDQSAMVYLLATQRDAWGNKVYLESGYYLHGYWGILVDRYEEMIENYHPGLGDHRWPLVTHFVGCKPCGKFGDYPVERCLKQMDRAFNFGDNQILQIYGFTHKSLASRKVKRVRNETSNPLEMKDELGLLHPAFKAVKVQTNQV

binding [1]: binds
binding [2]: no binding
B1: XXT2 fused to hRluc fragment [F1] or [F2] (protein, UniProt O22775 1-461)
chain: MIERCLGAYRCRRIQRALRQLKVTILCLLLTVVVLRSTIGAGKFGTPEQDLDEIRQHFHARKRGEPHRVLEEIQTGGDSSSGDGGGNSGGSNNYETFDINKIFVDEGEEEKPDPNKPYTLGPKISDWDEQRSDWLAKNPSFPNFIGPNKPRVLLVTGSAPKPCENPVGDHYLLKSIKNKIDYCRLHGIEIFYNMALLDAEMAGFWAKLPLIRKLLLSHPEIEFLWWMDSDAMFTDMAFELPWERYKDYNLVMHGWNEMVYDQKNWIGLNTGSFLLRNNQWALDLLDTWAPMGPKGKIREEAGKVLTRELKDRPVFEADDQSAMVYLLATQRDAWGNKVYLESGYYLHGYWGILVDRYEEMIENYHPGLGDHRWPLVTHFVGCKPCGKFGDYPVERCLKQMDRAFNFGDNQILQIYGFTHKSLASRKVKRVRNETSNPLEMKDELGLLHPAFKAVKVQTNQV
